The other results are listed elsewhere or left out. Rule as the data show it: active = 3.2 or more and inactive = the rest. Most of these values are background signal.
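Also: displayed peptides selected on beads carrying the immobilized SH2 domain, with library peptides lacking any tyrosine serving as negative controls.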

For the first assay, the target named is SHP2 C-SH2 domain E139D. The experiment in a line: enrichment score (SH2-bound / input frequency) (ratio); bacterial display of known human phosphotyrosine sites (pTyr-Var adds point mutants) read by sequencing; higher = stronger binding; tyrosines were phosphorylated by kinases first. The note with it: peptide library: pTyr-Var.
Consider YGTAQYCCRMG [LRRK2_Y2023_I2020T], for which the enrichment score is inactive: 0.786.

Regarding QWLEQYTQAIE [LSP1_Y234], the enrichment score was inactive: 1.04.

Consider KWLEQYTQAIE [LSP1_Y234_Q229K], for which the enrichment score is inactive: 1.36.

For FSIAQYCCRMG [LRRK2_Y2023_G2019S_YF], the enrichment score is inactive: 1.77.

With DDHFTYSRYPW [LY75_Y888], the enrichment score is inactive: 0.814.

Take TNGFTYGSSHQ [MANEA_Y331]: the enrichment score was inactive: 0.713.

For the molecule QRKRAYVEIEY [MAK16_Y282], the enrichment score was inactive: 0.759.

In the case of GENTVYAQVFN [LY9_Y603_M602V], the enrichment score was inactive: 1.54.

As for HFGNNYRDVLQ [MACC1_Y803_YF], the enrichment score was inactive: 1.1.

Turning to SFGESYDNSKS [MAN1B1_Y60_N59S], the enrichment score was inactive: 0.62.

On to GREEFYSTHPH [LRRK2_Y1402], for which the enrichment score is inactive: 1.01.

On to MANYVYKAGPS [MAML2_Y515_M514V], for which the enrichment score is inactive: 0.575.

Turning to YRASYYRRGDR [LTK_Y677], the enrichment score was inactive: 0.211.

As for KVMANYVYKAG [MAML2_Y513_M514V], the enrichment score was inactive: 0.941.

In the case of KLVRLYAVVTR [LYN_Y306], the enrichment score is inactive: 0.616.

As for MANFMYKAGPS [MAML2_Y515_YF], the enrichment score is inactive: 1.17.

GLCSYYETSKM [MAGED2_Y449_R446C]: the enrichment score is inactive: 0.864.

Regarding GRPLSYWLTGC [LYZL6_Y140_F139S], the enrichment score was inactive: 0.632.

A further assay concerns the target SHP2 C-SH2 domain wild-type. The description is as above. To be noted: peptide library: pTyr-Var.
For the molecule YGTAQYCCRMG [LRRK2_Y2023_I2020T], the enrichment score is inactive: 0.807.

Turning to QWLEQYTQAIE [LSP1_Y234], the enrichment score is inactive: 0.765.

For KWLEQYTQAIE [LSP1_Y234_Q229K], the enrichment score was inactive: 1.23.

For the molecule FSIAQYCCRMG [LRRK2_Y2023_G2019S_YF], the enrichment score was inactive: 1.51.

Turning to DDHFTYSRYPW [LY75_Y888], the enrichment score is inactive: 0.6.

Regarding TNGFTYGSSHQ [MANEA_Y331], the enrichment score was inactive: 0.554.

Consider QRKRAYVEIEY [MAK16_Y282], for which the enrichment score is inactive: 0.427.

On to GENTVYAQVFN [LY9_Y603_M602V], for which the enrichment score is inactive: 2.66.

For HFGNNYRDVLQ [MACC1_Y803_YF], the enrichment score was inactive: 0.806.

In the case of SFGESYDNSKS [MAN1B1_Y60_N59S], the enrichment score was inactive: 0.555.

Take GREEFYSTHPH [LRRK2_Y1402]: the enrichment score was inactive: 0.946.

On to MANYVYKAGPS [MAML2_Y515_M514V], for which the enrichment score is inactive: 0.844.

Take YRASYYRRGDR [LTK_Y677]: the enrichment score is inactive: 0.283.

Consider KVMANYVYKAG [MAML2_Y513_M514V], for which the enrichment score was inactive: 0.86.

In the case of KLVRLYAVVTR [LYN_Y306], the enrichment score is inactive: 0.817.

For the molecule MANFMYKAGPS [MAML2_Y515_YF], the enrichment score was inactive: 0.915.

On to GLCSYYETSKM [MAGED2_Y449_R446C], for which the enrichment score is inactive: 1.25.

Turning to GRPLSYWLTGC [LYZL6_Y140_F139S], the enrichment score is inactive: 0.755.

Another assay has as its target SHP2 N-SH2 domain L43F. Described as above. To be noted: peptide library: pTyr-Var.
For YGTAQYCCRMG [LRRK2_Y2023_I2020T], the enrichment score is inactive: 0.78.

Turning to QWLEQYTQAIE [LSP1_Y234], the enrichment score is inactive: 1.04.

Regarding KWLEQYTQAIE [LSP1_Y234_Q229K], the enrichment score is inactive: 1.03.

FSIAQYCCRMG [LRRK2_Y2023_G2019S_YF]: the enrichment score is inactive: 1.65.

DDHFTYSRYPW [LY75_Y888]: the enrichment score is inactive: 0.713.

In the case of TNGFTYGSSHQ [MANEA_Y331], the enrichment score was inactive: 0.764.

QRKRAYVEIEY [MAK16_Y282]: the enrichment score is inactive: 0.501.

In the case of GENTVYAQVFN [LY9_Y603_M602V], the enrichment score was inactive: 1.03.

As to HFGNNYRDVLQ [MACC1_Y803_YF], the enrichment score was inactive: 0.793.

As to SFGESYDNSKS [MAN1B1_Y60_N59S], the enrichment score is inactive: 0.612.

With GREEFYSTHPH [LRRK2_Y1402], the enrichment score was inactive: 0.872.

With MANYVYKAGPS [MAML2_Y515_M514V], the enrichment score was inactive: 0.629.

On to YRASYYRRGDR [LTK_Y677], for which the enrichment score is inactive: 0.218.

KVMANYVYKAG [MAML2_Y513_M514V]: the enrichment score was inactive: 0.772.

Consider KLVRLYAVVTR [LYN_Y306], for which the enrichment score is inactive: 0.368.

On to MANFMYKAGPS [MAML2_Y515_YF], for which the enrichment score was inactive: 1.4.

For GLCSYYETSKM [MAGED2_Y449_R446C], the enrichment score is inactive: 0.945.

With GRPLSYWLTGC [LYZL6_Y140_F139S], the enrichment score was inactive: 0.746.

For a further assay, the target named is SHP2 N-SH2 domain T42A. The description is as above. The note with it: peptide library: pTyr-Var.
YGTAQYCCRMG [LRRK2_Y2023_I2020T]: the enrichment score is inactive: 0.736.

Take QWLEQYTQAIE [LSP1_Y234]: the enrichment score is inactive: 0.931.

As for KWLEQYTQAIE [LSP1_Y234_Q229K], the enrichment score is inactive: 1.01.

As to FSIAQYCCRMG [LRRK2_Y2023_G2019S_YF], the enrichment score is inactive: 1.15.

As for DDHFTYSRYPW [LY75_Y888], the enrichment score is inactive: 0.734.

Take TNGFTYGSSHQ [MANEA_Y331]: the enrichment score is inactive: 0.732.

Turning to QRKRAYVEIEY [MAK16_Y282], the enrichment score is inactive: 1.11.

Take GENTVYAQVFN [LY9_Y603_M602V]: the enrichment score was inactive: 2.22.

Turning to HFGNNYRDVLQ [MACC1_Y803_YF], the enrichment score is inactive: 0.69.

Consider SFGESYDNSKS [MAN1B1_Y60_N59S], for which the enrichment score is inactive: 0.501.

Consider GREEFYSTHPH [LRRK2_Y1402], for which the enrichment score is inactive: 0.776.

For MANYVYKAGPS [MAML2_Y515_M514V], the enrichment score is inactive: 0.703.

On to YRASYYRRGDR [LTK_Y677], for which the enrichment score was inactive: 0.263.

In the case of KVMANYVYKAG [MAML2_Y513_M514V], the enrichment score was inactive: 0.659.

For KLVRLYAVVTR [LYN_Y306], the enrichment score is inactive: 0.441.

As for MANFMYKAGPS [MAML2_Y515_YF], the enrichment score was inactive: 1.17.

Take GLCSYYETSKM [MAGED2_Y449_R446C]: the enrichment score was inactive: 0.881.

On to GRPLSYWLTGC [LYZL6_Y140_F139S], for which the enrichment score was inactive: 0.602.

The next assay has as its target SHP2 N-SH2 domain T52S. The assay is described as above. To be noted: peptide library: pTyr-Var.
As to YGTAQYCCRMG [LRRK2_Y2023_I2020T], the enrichment score is inactive: 0.774.

For QWLEQYTQAIE [LSP1_Y234], the enrichment score is inactive: 1.09.

KWLEQYTQAIE [LSP1_Y234_Q229K]: the enrichment score is inactive: 1.06.

For FSIAQYCCRMG [LRRK2_Y2023_G2019S_YF], the enrichment score was inactive: 1.46.

As to DDHFTYSRYPW [LY75_Y888], the enrichment score is inactive: 0.678.

Regarding TNGFTYGSSHQ [MANEA_Y331], the enrichment score was inactive: 0.74.

In the case of QRKRAYVEIEY [MAK16_Y282], the enrichment score was inactive: 0.564.

With GENTVYAQVFN [LY9_Y603_M602V], the enrichment score was inactive: 0.988.

With HFGNNYRDVLQ [MACC1_Y803_YF], the enrichment score is inactive: 0.783.

In the case of SFGESYDNSKS [MAN1B1_Y60_N59S], the enrichment score is inactive: 0.528.

For the molecule GREEFYSTHPH [LRRK2_Y1402], the enrichment score was inactive: 0.804.

MANYVYKAGPS [MAML2_Y515_M514V]: the enrichment score was inactive: 0.707.

Consider YRASYYRRGDR [LTK_Y677], for which the enrichment score was inactive: 0.315.

On to KVMANYVYKAG [MAML2_Y513_M514V], for which the enrichment score is inactive: 0.724.

For the molecule KLVRLYAVVTR [LYN_Y306], the enrichment score is inactive: 0.531.

With MANFMYKAGPS [MAML2_Y515_YF], the enrichment score was inactive: 1.03.

As for GLCSYYETSKM [MAGED2_Y449_R446C], the enrichment score was inactive: 0.949.

As for GRPLSYWLTGC [LYZL6_Y140_F139S], the enrichment score is inactive: 0.658.

Another assay has as its target SHP2 N-SH2 domain wild-type. Described as above. The note with it: peptide library: pTyr-Var.
For the molecule YGTAQYCCRMG [LRRK2_Y2023_I2020T], the enrichment score is inactive: 0.873.

For the molecule QWLEQYTQAIE [LSP1_Y234], the enrichment score was inactive: 0.571.

Regarding KWLEQYTQAIE [LSP1_Y234_Q229K], the enrichment score was inactive: 1.16.

Regarding FSIAQYCCRMG [LRRK2_Y2023_G2019S_YF], the enrichment score was inactive: 1.39.

For the molecule DDHFTYSRYPW [LY75_Y888], the enrichment score was inactive: 0.497.

On to TNGFTYGSSHQ [MANEA_Y331], for which the enrichment score is inactive: 0.626.

Turning to QRKRAYVEIEY [MAK16_Y282], the enrichment score is inactive: 0.429.

GENTVYAQVFN [LY9_Y603_M602V]: the enrichment score was inactive: 0.826.

With HFGNNYRDVLQ [MACC1_Y803_YF], the enrichment score was inactive: 0.906.

SFGESYDNSKS [MAN1B1_Y60_N59S]: the enrichment score is inactive: 0.569.

For the molecule GREEFYSTHPH [LRRK2_Y1402], the enrichment score is inactive: 0.841.

MANYVYKAGPS [MAML2_Y515_M514V]: the enrichment score was inactive: 0.772.

With YRASYYRRGDR [LTK_Y677], the enrichment score is inactive: 0.228.

As to KVMANYVYKAG [MAML2_Y513_M514V], the enrichment score was inactive: 0.704.

With KLVRLYAVVTR [LYN_Y306], the enrichment score is inactive: 0.455.

Consider MANFMYKAGPS [MAML2_Y515_YF], for which the enrichment score is inactive: 1.08.

For GLCSYYETSKM [MAGED2_Y449_R446C], the enrichment score was inactive: 1.35.

For GRPLSYWLTGC [LYZL6_Y140_F139S], the enrichment score is inactive: 0.759.

These data come from the supplement of paper PMC10369915.
